The record followed here is PubChem BioAssay AID1240 (Sanford-Burnham Center for Chemical Genomics, 2008).

The whole screen tested about 50,000 compounds, of which about 800 (1.6%) showed an effect of 50% or more. This is one part of the list.

The target in this assay is Bcl-2-like protein 10 (Homo sapiens) (UniProt Q9HD36). Kind of assay: TR3 peptide-Bcl-B binding displacers, biochemical primary FP assay, phenotype converters (AID 1240).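 Also: 0% = Bcl-B with tracer peptide and DMSO and 100% = tracer peptide lacking Bcl-B.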 The conditions noted are these: GST-Bcl-B / FITC-TR3 peptide fluorescence polarization; stronger effect = higher value; compound at 3.75 mg/L.
UniProt Q9HD36, sequence (Q9HD36 whole entry, looked up): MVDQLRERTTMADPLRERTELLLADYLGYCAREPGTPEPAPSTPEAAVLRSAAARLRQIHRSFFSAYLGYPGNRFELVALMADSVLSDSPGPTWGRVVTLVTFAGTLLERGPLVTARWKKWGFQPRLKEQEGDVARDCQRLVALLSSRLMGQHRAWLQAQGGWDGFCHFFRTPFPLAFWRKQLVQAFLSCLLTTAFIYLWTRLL
Regarding `Cc1cccc(CC2S/C(=N/N=C/c3ccco3)N(c3ccccc3)C2=O)c1` (configuration not stated), the displacement was 11.1%. Regarding `NC(=O)c1ccccc1NC(=O)c1cccc(F)c1`, the displacement was -2.1%.

Consider `Cc1c(-c2ccccc2)[n+](=O)c2c(n1[O-])CCCCC2`, for which the displacement is -4.1%.

With `O=C(O)CCC(=O)Nc1ccc(NC(=O)c2ccccc2)c(Cl)c1`, the displacement is -5.2%.

`CCc1cc2c(=O)c(-c3nc4ccccc4s3)coc2c(CN(C)C)c1O`: the displacement is -15%. Then `O=C(CCN1C(=O)c2ccccc2C1=O)Nc1ccccc1C(=O)N1CCCC1`, with 7.8%; and `CCN(CC)C(=O)CSc1nc(O)cc(=O)[nH]1`, with 2.5%; and `CC(C)CCNC(=O)c1ccccc1[N+](=O)[O-]`, with 10.9%. For `Cc1ccc(NC2=NC3(CCCC3)N=C(N)N2)c(C)c1` the value was -7.7%. As for `CCOc1ccc(N2C(=O)C3ON(c4ccccc4)C(c4ccc(SC)cc4)C3C2=O)cc1` (configuration not stated), the displacement was determined as 12.4%. With `O=C(Nc1cccc(C(F)(F)F)c1)c1ccc([N+](=O)[O-])o1`, the displacement was -7.7%.

As for `O=S(=O)(Nc1ccc(-c2nc3ccccc3s2)c(O)c1)c1ccccc1`, the displacement was -3.2%. Take `CCN(CC)c1ccc(/C=C2\C(=O)NC(=O)N(C)C2=O)cc1`: the displacement stood at 0.5%. On to `COc1ccccc1N1CCN(/N=C/c2ccc(Cl)c([N+](=O)[O-])c2)CC1`, for which the displacement was 12.9%. For the compound `O=C(COc1ccccc1)N1CCc2ccccc2C1`, the displacement was -5.2%. `COc1ccc(C2CC(=O)C3=C(C2)Nc2ccccc2NC3c2ccc(OC(F)(F)F)cc2)cc1` (configuration not stated): the displacement stood at 7.4%.

Take `O=C1Nc2ccc(S(=O)(=O)NNc3ccc([N+](=O)[O-])cc3)c3cccc1c23`: the displacement was -0.4%. Regarding `Cc1ccc(C2=NN(C(=N)SC3CC(=O)N(c4ccccc4F)C3=O)C(c3ccc(Br)cc3)C2)cc1` (configuration not stated), the displacement is -12.6%. `Cc1cc(OCC(=O)Nc2ccc3c(c2)OCO3)ccc1Br`: the displacement is -0.6%. Then `COc1ccc(N2C(=O)CSC2c2ccccc2F)cc1` (configuration not stated), with -12.8%; and `Cc1cc(NC(=O)c2ccc(Cl)c(Cl)c2)ccc1NC(=O)c1ccccc1`, with 4.7%. For `CC(C)Oc1ccc(C(=O)N2CCC(Cc3ccccc3)CC2)cc1` the value was -7.7%. Consider `COc1ccccc1/C=N/N=C1/NC(=O)C(CC(=O)Nc2cccc(C)c2C)S1` (configuration not stated), for which the displacement was 11.2%. As to `CCOc1cc(C2C(C(=O)OCC3CCCO3)=C(C)NC3=C2C(=O)CCC3)cc([N+](=O)[O-])c1O` (configuration not stated), the displacement is -10.6%. Consider `CC/C(O)=C1/C(=O)CC(C)(C)CC1=Nc1ccncc1`, for which the displacement was -11.1%. For the compound `O=C(CSC1=NCCS1)OCN1C(=O)c2ccccc2C1=O`, the displacement amounted to 6.9%. As to `O=C(NCCCN1CCOCC1)c1cc([N+](=O)[O-])cc([N+](=O)[O-])c1`, the displacement is -1.7%. Then `CCN(CC)c1ccc(C=C(C#N)C#N)c(OC)c1`, with 91.5%. Turning to `CC(C)OC(=O)C(C)Nc1n[nH]c(=S)[nH]c1=O` (configuration not stated), the displacement is 11.6%. For the compound `Cc1cccc(CC2CC(=O)N(c3ccc4ccccc4n3)C2=O)c1` (configuration not stated), the displacement is 9%. As for `COc1cccc(OCCCOc2ccc(C)c(C)c2)c1`, the displacement worked out at 0.1%. Regarding `O=C1c2ccccc2C(=O)N1Cc1nc2ccccc2c(=O)n1Cc1ccccc1`, the displacement is -0.4%.

Turning to `COc1ccc(/C=C(/C#N)C(=O)Nc2ccccc2)cc1`, the displacement was -3.5%. As to `O=C(NCc1ccc(Cl)cc1Cl)C(=O)NC1CCCC1`, the displacement is 10.8%. As to `CCOC(=O)c1c(NC(=O)c2ccc(Br)cc2)sc(C(=O)N(CC)CC)c1C`, the displacement was -0.9%.

With `O=C(C(c1ccccc1)c1ccccc1)N1CCN(C2CC3CCC2C3)CC1` (configuration not stated), the displacement was -2.6%. Consider `Cc1ccc(S(=O)(=O)c2cc(NS(=O)(=O)c3ccc(Cl)cc3)c3ccccc3c2O)cc1`, for which the displacement turned out to be 4.7%. For `COc1cc(C=C2C(=O)c3ccccc3C2=O)cc(Br)c1OCC(=O)O`, the displacement was -0.2%. Then `COc1ccc(N2C(=O)NC(=O)/C(=C/c3ccc(OCCOc4ccccc4)cc3)C2=O)cc1`, with -23.2%; and `Cc1ccc2nc(-c3ccc(N4C(=O)C5C6c7ccccc7C(c7ccccc76)C5C4=O)cc3)sc2c1` (configuration not stated), with -2.1%. Then `COc1cccc(/C=N/Nc2cc(N3CCOCC3)ncn2)c1O`, with -9%. As to `CC(=O)NC(=O)c1ccccc1OCc1ccc([N+](=O)[O-])cc1`, the displacement stood at 2.3%. Consider `C/C(=N\N1CCN(Cc2ccc(C)cc2)CC1)c1ccccc1O`, for which the displacement worked out at 14.3%. As for `Cc1ccc(S(=O)(=O)n2cnc3cc([N+](=O)[O-])ccc32)cc1C`, the displacement was determined as 10%. As for `Cc1cccc(-n2c(C)cc(/C=N/NC(=O)CN3CCOCC3)c2C)c1`, the displacement was -27.1%. For `COc1c(Cl)cc(/C=C2/SC(=S)NC2=O)cc1Cl`, the displacement was -19%.

Take `O=C(Nc1nc(-c2ccccc2)cs1)C1CC2CCC1C2` (configuration not stated): the displacement was -16.1%. For `O=C(N/N=C/c1cc([N+](=O)[O-])ccc1O)c1cccc(N2CCCC2=O)c1` the value was 0%. For the compound `CCOC(=O)c1c(/N=C/c2c(O)c([N+](=O)[O-])cc3oc4c(c23)CCCC4)sc(C)c1C`, the displacement was 5.9%. Regarding `Cc1cc(NC(=O)c2ccc(-c3ccc([N+](=O)[O-])cc3C)o2)ccc1NC(=O)c1ccco1`, the displacement is -1.5%.

Take `Cc1ccc(OCC(O)Cn2c3ccccc3c3ccccc32)cc1` (configuration not stated): the displacement was -10.4%. For `O=C(NN1C(=O)CSC1=S)c1ccncc1` the value was -31.9%; for `Cc1ccc(OCC(=O)N=Nc2c(O)[nH]c3ccc(Br)cc23)cc1`, 11.7%; for `COc1cc(/C=C(\C#N)C(=O)NCc2ccco2)c(Br)c(Br)c1O`, -112%. With `O=C(CSC1CC(=O)N(c2ccc(C(=O)O)cc2)C1=O)Nc1ccc(Cl)cc1` (configuration not stated), the displacement is 9.1%. Turning to `O=C(c1cccs1)N1CCN(Cc2ccccc2F)CC1`, the displacement stood at 1.2%. For `O=C1CC(c2cc3c(cc2Cl)OCO3)c2cc(Br)c3ccccc3c2N1` (configuration not stated), the displacement is -5.8%. As to `O=C(c1ccco1)N1CCN(S(=O)(=O)c2ccccc2)CC1`, the displacement was -2.1%. On to `CC(C)C(=O)Nc1ccc(-c2nc3cc(Cl)cc(Cl)c3o2)cc1`, for which the displacement was 4.4%. As to `COc1ccccc1OCCNC(=O)c1ccc(Oc2ccccc2)cc1`, the displacement was -3.9%.

On to `O=C(O)c1ccc(-n2c(=O)c3ccccc3c3ccccc3c2=O)cc1`, for which the displacement was -1.2%. As to `Cc1ccc(-c2nc3cc(Cl)ccc3o2)cc1NC(=S)NC(=O)c1ccco1`, the displacement is 16.3%. Take `COc1ccc2c(c1)nc(SCC(O)c1ccccc1)n2C` (configuration not stated): the displacement was -4%. For `Cc1cc(-c2ccc(C)o2)c(C#N)c(SCC(=O)c2ccccc2)n1` the value was 40.5%. For the compound `CC(=O)c1cccc(NC(=O)c2ccc3ccccc3c2)c1`, the displacement amounted to 30.2%. As to `c1ccc(C23CN4CCN(CC(C4)C2=N/N=C2\C4CN5CCN(C4)CC2(c2ccccc2)C5)C3)cc1`, the displacement is -1.7%. For `COc1ccc(Br)cc1/C=C/C(=O)Nc1ccc(N2CCOCC2)cc1` the value was 8.5%. For `COc1ccc(C(=O)Nc2cc(Cl)ccc2Cl)cc1NC(=O)c1ccccc1C`, the displacement was 2.9%. For `CC(C)CNC(=O)CC(c1ccccc1)c1c(O)ccc2ccccc12` (configuration not stated) the value was 4.2%; for `COc1cc(NC(=O)c2ccccc2Cl)cc(OC)c1`, 0.9%; for `CCc1nnc(NC(=O)CN2CCN(c3ccc([N+](=O)[O-])cc3)CC2)s1`, 6.3%.

With `O=C1c2ccccc2C(=O)N1N1C(=O)c2ccc(-c3nc4ccccc4o3)cc2C1=O`, the displacement was determined as 1.5%. `CC1CCN(c2cc(N3CCN(C(=O)c4ccc(F)cc4F)CC3)c([N+](=O)[O-])cc2F)CC1`: the displacement is -2.9%. In the case of `COc1ccc(C2SCC(=O)N2CCN2CCCCC2)cc1` (configuration not stated), the displacement is 5.9%. For `CCOc1ccc(NC(=O)COc2ccccc2)c([N+](=O)[O-])c1` the value was 10.7%; for `CCc1ccc(N2C(=O)NC(=O)/C(=C\c3ccc(Oc4ccc([N+](=O)[O-])cn4)cc3)C2=O)cc1`, 7.3%; for `COc1ccccc1OCCNC(=O)Nc1cc(F)c(F)cc1Cl`, -30.2%. For `COc1ccc(N(CC(=O)Nc2ccc(Cl)cc2)S(C)(=O)=O)c(OC)c1` the value was 3.4%; for `C=CCNc1nc(Nc2ccccc2)nc(Nc2ccccc2)n1`, -0.1%; for `CCOC(=O)c1cccc(-c2ccc(/C=C3\Sc4ccccc4C3=O)o2)c1`, -33.5%. Turning to `O=C(Cc1ccccc1)N1N=C(c2cccnc2)CC1(O)C(F)(F)F` (configuration not stated), the displacement is 5.7%. With `CCOC(=O)c1sc(NC(=O)c2ccc(Cl)cc2Cl)nc1C`, the displacement is 17%.

As for `Cc1cc(F)c(F)cc1C(=O)n1nnc2ccccc21`, the displacement was 1.8%. As to `O=C(Oc1ccc(-n2cnnn2)cc1)N1CCOCC1`, the displacement came to 0.2%. As for `OCCNc1cc(-c2ccccc2)nc(-c2ccc(Br)cc2)n1`, the displacement amounted to 2.7%. Turning to `CCc1c(C)nc2[nH]nc(-c3cccc(-c4n[nH]c5nc(C)c(CC)c(=O)n45)n3)n2c1=O`, the displacement was -5.9%. For the compound `COc1ccc2ccccc2c1/C=C1/C(=O)NC(=O)N(c2cccc(Br)c2)C1=O`, the displacement was 11.3%. For `Cc1ccc(NC(=O)CCC(=O)n2nc(C)cc2C)c(C)c1` the value was -6.3%; for `O=C(/C=C/c1ccccc1)Nc1ccc(S(=O)(=O)Nc2ccc(F)cc2)cc1`, -4.3%; for `COc1ccccc1NC(=O)/C(=C\c1cccs1)NC(=O)c1ccc(C(C)(C)C)cc1`, 8.8%.

Regarding `CC(C)c1ccccc1NC(=O)C1CC1`, the displacement stood at 4.7%. Take `COc1ccccc1NCC(O)Cn1c2ccccc2c2ccccc21` (configuration not stated): the displacement was 0.3%. Take `COc1ccccc1CC(=O)Nc1ccc(Br)cc1`: the displacement turned out to be 5.8%. On to `Cc1ccc2cccc(SCc3ccc([N+](=O)[O-])cc3)c2n1`, for which the displacement is -9.5%. For `Cc1ccc(C2=NN(C(=O)OC(C)(C)C)C(O)(C(F)(F)F)C2)cc1` (configuration not stated) the value was 1.3%; for `Cc1cc[n+](CC(=O)c2ccc(C)c([N+](=O)[O-])c2)cc1`, 2.9%. Then `CC(C)(C)c1ccc(C(=O)Nc2ccc(N)cc2)cc1`, with 11.4%. Then `CCc1c(C#N)c(N)[nH]c(=S)c1C#N`, with 8.8%; and `CC1CCN(c2cc(N3CCN(C(=O)c4ccccc4F)CC3)c([N+](=O)[O-])cc2F)CC1`, with -5.2%. Regarding `Cc1cccc2sc(NC(=O)c3ccc(C(=O)c4ccccc4)cc3)nc12`, the displacement was determined as 4.1%.

On to `COc1cc(C(=O)N/C(=C/c2ccc(F)cc2)C(=O)NC(CCC(=O)O)C(=O)O)cc(OC)c1OC` (configuration not stated), for which the displacement is -5.5%. In the case of `O=C(CC(Nc1ccc([N+](=O)[O-])cc1)c1ccc(Cl)cc1)c1ccc(Cl)cc1` (configuration not stated), the displacement was -2.2%.

Turning to `Cc1ccc(OCC(=O)Nc2cccnc2)cc1C`, the displacement was -0.6%.

With `Cc1cc(C)nc(SCC(=O)Nc2nc3c(s2)C(=O)CC(C)(C)C3)n1`, the displacement is -1.2%. Take `CCCN1C(=O)c2ccccc2NC1c1cccc(F)c1` (configuration not stated): the displacement was 11.1%. For `CCC1CCc2c(sc(N)c2C#N)C1` (configuration not stated) the value was -1.4%; for `O=C(N/N=C/c1ccc(-c2cccc(C(F)(F)F)c2)o1)c1ccco1`, 7.3%.
